# Results from PubChem BioAssay AID504333 (National Center for Advancing Translational Sciences (NCATS), 2011).
# The whole screen tested about 360,000 compounds, of which about 16,000 (4.4%) were called active. Inconclusive means that the source gave no clear call. Such entries were picked first, then a sample of the others. Calls come from the whole dose curve; as a rule, active = well fitted inhibition curve with a large enough effect; inconclusive = small, poorly fitted or top-dose-only effect; inactive = no such curve, though single readings can be large or run the other way. Potencies beside an inconclusive call are fits to weak or partial responses and may not hold up.
# Biological target: Bromodomain adjacent to zinc finger domain protein 2B (Homo sapiens) (UniProt Q9UIF8)
# Assay: qHTS Assay for Inhibitors of BAZ2B; note: nearly all actives have a fitted effect of over 60% in size
# Conditions: AlphaScreen BAZ2B-H3K14Ac peptide displacement; activity change, negative = inhibition: at 114 µM (top of the series) unless noted
# Outline: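 Compounds, titrated to a top concentration of 110 uM, were incubated 30 min at room temperature with preformed BAZ2B/acetyl-K14 H3 peptide complex (50 nM each). Proximity signal was measured by AlphaScreen after 20 min with beads.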
# % is set by controls: 0 for no effect and ±100 for the full control effect; potency is the fitted concentration of half-maximal effect; tags give direction and shape of the fitted curve.
# Sequence of UniProt Q9UIF8 (Q9UIF8 whole entry, looked up, the tested form may be a part): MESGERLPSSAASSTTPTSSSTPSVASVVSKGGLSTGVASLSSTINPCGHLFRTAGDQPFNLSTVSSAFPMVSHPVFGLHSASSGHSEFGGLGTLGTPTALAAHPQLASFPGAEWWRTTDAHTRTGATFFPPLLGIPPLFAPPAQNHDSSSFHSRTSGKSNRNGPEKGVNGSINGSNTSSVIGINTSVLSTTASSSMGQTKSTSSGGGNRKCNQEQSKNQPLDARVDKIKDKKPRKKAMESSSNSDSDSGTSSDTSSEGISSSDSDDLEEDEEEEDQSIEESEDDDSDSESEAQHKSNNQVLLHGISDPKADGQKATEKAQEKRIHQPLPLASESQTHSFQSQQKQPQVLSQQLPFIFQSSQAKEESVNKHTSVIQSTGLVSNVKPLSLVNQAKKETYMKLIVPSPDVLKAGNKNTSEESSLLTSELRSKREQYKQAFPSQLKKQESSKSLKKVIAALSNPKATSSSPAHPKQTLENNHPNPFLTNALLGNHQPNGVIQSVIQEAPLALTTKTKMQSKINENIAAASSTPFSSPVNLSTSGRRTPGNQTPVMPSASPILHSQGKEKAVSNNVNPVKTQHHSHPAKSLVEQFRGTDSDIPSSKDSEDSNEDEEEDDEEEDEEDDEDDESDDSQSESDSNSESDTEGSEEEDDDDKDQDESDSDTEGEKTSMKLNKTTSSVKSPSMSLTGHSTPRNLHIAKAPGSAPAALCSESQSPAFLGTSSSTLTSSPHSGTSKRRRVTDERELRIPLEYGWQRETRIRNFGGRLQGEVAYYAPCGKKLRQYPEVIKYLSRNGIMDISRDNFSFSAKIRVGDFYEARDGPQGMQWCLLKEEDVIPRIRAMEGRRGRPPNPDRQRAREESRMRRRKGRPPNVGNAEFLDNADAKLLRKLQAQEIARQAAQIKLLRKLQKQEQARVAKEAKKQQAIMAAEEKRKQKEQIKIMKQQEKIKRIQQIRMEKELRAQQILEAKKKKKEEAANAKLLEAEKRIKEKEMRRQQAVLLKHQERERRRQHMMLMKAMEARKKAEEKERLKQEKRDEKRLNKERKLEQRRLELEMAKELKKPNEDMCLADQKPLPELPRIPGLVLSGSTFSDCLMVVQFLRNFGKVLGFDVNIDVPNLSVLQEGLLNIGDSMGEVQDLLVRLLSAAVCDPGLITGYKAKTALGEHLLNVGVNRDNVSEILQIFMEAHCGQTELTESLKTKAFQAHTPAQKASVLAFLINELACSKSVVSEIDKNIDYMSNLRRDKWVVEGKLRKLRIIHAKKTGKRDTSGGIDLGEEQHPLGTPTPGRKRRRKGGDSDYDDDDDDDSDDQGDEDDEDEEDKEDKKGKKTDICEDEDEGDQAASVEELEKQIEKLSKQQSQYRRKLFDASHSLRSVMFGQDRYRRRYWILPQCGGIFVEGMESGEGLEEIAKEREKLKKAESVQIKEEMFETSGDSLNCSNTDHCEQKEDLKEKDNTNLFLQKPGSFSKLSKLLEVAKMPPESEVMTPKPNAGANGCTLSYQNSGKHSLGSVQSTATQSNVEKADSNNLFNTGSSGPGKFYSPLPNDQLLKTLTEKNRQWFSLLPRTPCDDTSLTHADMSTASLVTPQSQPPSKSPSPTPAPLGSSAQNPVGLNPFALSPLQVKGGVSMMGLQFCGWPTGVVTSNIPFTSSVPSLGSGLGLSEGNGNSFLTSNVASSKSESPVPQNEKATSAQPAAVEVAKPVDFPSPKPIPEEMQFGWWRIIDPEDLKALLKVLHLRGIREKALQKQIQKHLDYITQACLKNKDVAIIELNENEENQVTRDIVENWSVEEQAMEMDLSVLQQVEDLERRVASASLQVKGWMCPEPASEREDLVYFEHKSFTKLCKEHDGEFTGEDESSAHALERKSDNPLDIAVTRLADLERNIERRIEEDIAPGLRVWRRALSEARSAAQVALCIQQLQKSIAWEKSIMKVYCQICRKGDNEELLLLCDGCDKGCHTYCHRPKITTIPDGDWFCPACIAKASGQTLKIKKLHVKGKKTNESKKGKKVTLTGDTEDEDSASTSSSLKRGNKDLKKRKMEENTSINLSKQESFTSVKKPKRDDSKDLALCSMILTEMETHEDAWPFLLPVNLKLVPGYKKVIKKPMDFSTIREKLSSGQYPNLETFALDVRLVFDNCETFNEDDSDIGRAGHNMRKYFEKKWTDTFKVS
SMILES,Potency,"activity change, negative = inhibition"
C#CCOCCOCCOCCNc1nc(N2CCN(C(=O)C([C@@H](C)CC)n3cc(C(N)CC(C)C)nn3)CC2)nc(N2CCN(C(=O)[C@H](CCC(=O)O)n3cc(C(N)Cc4ccc(O)cc4)nn3)CC2)n1 (stereo partly drawn),"inconclusive: 89.1 µM [inhibitor, single point]",
CCOC(=O)c1c(C)sc(-c2c(-c3cc(C)ccc3C)[nH]c3c2c(=O)[nH]c(=O)n3C)c1O,active: 50.1 µM,
CC(C)OP(=O)(OC(C)C)/C(C=O)=N\Nc1ccc([N+](=O)[O-])cc1,,inactive: -29.7%
CCn1cc(/C=C(\NC(=O)c2ccc(OC)cc2)C(=O)N2CCOCC2)c2ccccc21,"inconclusive: 89.1 µM [inhibitor, single point]",
CCOC(=O)/C(C)=N/NC(=O)c1cccc([N+](=O)[O-])c1,,inactive: -9.1%
COCCn1cnc2c1c(=O)n(Cc1cc(C(C)=O)ccc1OC)c(=O)n2Cc1ccccc1,,inactive: 1.23%
CC(=O)c1ccc(N2CCN(CC(O)COC(c3ccccc3)c3ccccc3)CC2)cc1 (stereo not drawn),active: 17.8 µM,
COc1ccccc1N=c1sc2ccccc2n1C,,inactive: -4.22%
COc1ccc(/C(O)=C2\C(=O)C(=O)N(Cc3ccco3)C2c2cc(OC)ccc2OC)cc1 (stereo not drawn),"inconclusive: 89.1 µM [inhibitor, single point]",
COc1ccc(-c2ccc(CCC(=O)O)n2Cc2ccco2)cc1,"inconclusive: 79.4 µM [inhibitor, single point]",
O=C(O)CN1C(=O)/C(=C\c2cc(Br)ccc2OCc2ccccc2F)SC1=S,active: 56.2 µM,
NC(=O)Nc1ccc(Nc2ccccc2)cc1,"inconclusive: 39.8 µM [inhibitor, partial curve]",
COC(=O)Nc1nc2ccc(-c3n[nH]c(=O)c4ccccc34)cc2[nH]1,"inconclusive: 79.4 µM [inhibitor, partial curve]",
O=C(Nc1c(C(=O)Nc2ccccc2)cnn1-c1ccccc1)c1ccco1,,inactive: 9.3%
O=C(O)CCn1cc(-c2ccc(F)cc2)nc1-c1ccncc1,"inconclusive: 89.1 µM [inhibitor, single point]",
CCN(Cc1ccccc1)C(=O)C1CCN(CC2CC=CCC2)CC1 (stereo not drawn),"inconclusive: 89.1 µM [inhibitor, single point]",
CCn1c(SCc2ccc(Cl)c(Cl)c2)nnc1C(C)NC(=O)c1ccc(OC)cc1 (stereo not drawn),"inconclusive: 39.8 µM [inhibitor, single point]",
Cc1cccc(NC(=O)c2cc([N+](=O)[O-])ccc2NC2CCCCC2)c1,"inconclusive: 25.1 µM [inhibitor, partial curve]",
O=C(c1cn(CC2CCCCC2)nn1)N1CCN(c2ccc(F)cc2)CC1,"inconclusive: 79.4 µM [inhibitor, partial curve]",
O=C(C1CCN(CC2CC=CCC2)CC1)N(CCc1ccccc1)Cc1ccccc1 (stereo not drawn),active: 79.4 µM,
CC(=O)Nc1ccc(S(=O)(=O)N2CCN(Cc3cccs3)CC2)cc1,active: 35.5 µM,
CC(=O)N1CCN(c2ccc(NCc3cccc4ccccc34)cc2)CC1,active: 31.6 µM,
COc1cc2c(cc1OC)CN(C(=O)CN1C(=O)c3ccc([N+](=O)[O-])cc3C1=O)CC2,,inactive: 3.51%
O=C(O)CCNS(=O)(=O)c1ccc2c(c1)CCCC2,"inconclusive: 70.8 µM [inhibitor, partial curve, poor fit]",
Cc1ccc(C(=O)N2CCc3ccccc32)o1,"inconclusive: 89.1 µM [inhibitor, single point]",

SMILES,Potency,"activity change, negative = inhibition"
COc1ccc(-c2csc(NC(=O)COC(=O)Cc3ccc(Cl)cc3Cl)n2)cc1,,inactive: -0.543%
CCOC(=O)c1c(S(=O)(=O)NCC(C)c2ccccc2)c(C)n(C)c1C (stereo not drawn),"inconclusive: 79.4 µM [inhibitor, single point]",
CC(C)NC(=O)c1onc(CSc2ccc(F)c(F)c2)c1C(=O)O,"inconclusive: 79.4 µM [inhibitor, partial curve]",
COc1ccc(OC)c(CCNC(=O)Cn2sc3nc(C)cc(C)c3c2=O)c1,active: 50.1 µM,
COc1ccccc1NC(=O)c1cc(C(=O)O)ccc1C(=O)O,"inconclusive: 89.1 µM [inhibitor, single point]",
O=C(CCC1N=C2c3ccccc3N=C(SCc3cccc(F)c3)N2C1=O)NC1CCCCC1 (stereo not drawn),,inactive: -3.48%
COc1ccc(Nc2cc(NCCCO)c([N+](=O)[O-])c3nonc23)cc1,,inactive: -8.12%
CC(C)c1ccc(S(=O)(=O)N2CCN(CCC(=O)Nc3ccc(N(C)C)cc3)CC2)cc1,active: 22.4 µM,
CCOc1ccc(Br)cc1S(=O)(=O)N1CCCN(C)CC1,,inactive: -11%
N#C/C(=C\c1cccs1)C(=O)Nc1nccs1,active: 50.1 µM,
COc1ccc2c(c1)C(C)CC(C)(C)N2C(=O)Nc1ccccc1 (stereo not drawn),"inconclusive: 79.4 µM [inhibitor, single point]",
COc1ccc(OC)c(-c2cc(C3CCN(c4cc(Cl)nc(N)n4)CC3)[nH]n2)c1,"inconclusive: 39.8 µM [inhibitor, partial curve]",
COc1ccc(CNC(=O)[C@H](C)NC(=O)C2CC(=O)N(c3ccc(OC)cc3)C2)cc1 (stereo partly drawn),,inactive: -2.36%
O=C(/C=C/c1ccc(Cl)cc1)NC(=S)Nc1ccccc1C(=O)O,"inconclusive: 50.1 µM [inhibitor, partial curve]",
C=CCC(NC(C)c1ccccc1)c1ccco1 (stereo not drawn),active: 50.1 µM,
Cc1ccccc1C(=O)N1CCN(c2ccc([N+](=O)[O-])c(NCc3cccnc3)c2)CC1,"inconclusive: 89.1 µM [inhibitor, single point]",
CSCCC(NC(=O)c1ccco1)C(=O)Nc1cc(C)ccn1 (stereo not drawn),,inactive: 1.06%
CCc1cccc(C)c1Nc1c(-c2ccc(N3CCOCC3)cc2)nc2ncccn12,active: 28.2 µM,
Cc1ccc(N(Cc2ccco2)C(=O)c2ccc(N3CCCCC3)c([N+](=O)[O-])c2)cc1,"inconclusive: 0.708 µM [inhibitor, full curve, poor fit]",
CCOC(=O)C(=NCCCN1CCOCC1)NNc1cccc(C(F)(F)F)c1,"inconclusive: 50.1 µM [inhibitor, partial curve]",
CCOC(=O)c1sc2nc3c(SCC(=O)O)cc(C(=O)c4cc(F)ccc4O)cn3c(=O)c2c1C,active: 35.5 µM,
C#CC[N+]1(CC#Cc2ccccc2)CCCCC1,,inactive: -5.1%
CC(C)c1ccc(/C=C2\SC(=S)N(CCC(=O)N3CCCCC3CCO)C2=O)cc1 (stereo not drawn),"inconclusive: 12.6 µM [inhibitor, full curve]",
O=[N+]([O-])c1cc(C2Nc3cccc4cccc(c34)N2)ccc1Cl,"inconclusive: 79.4 µM [inhibitor, single point]",
COc1ccc(NC2CCCN(C(=O)CCn3cccn3)C2)cc1 (stereo not drawn),,inactive: -19.5%

SMILES,Potency,"activity change, negative = inhibition"
CCOc1ccc(NC(=S)N2CCCN(Cc3cccc(Cl)c3)C2)cc1,"inconclusive: 79.4 µM [inhibitor, single point]",
Cc1ccc(OCCCCN2CCCCC2)c(Br)c1,active: 50.1 µM,
CCOCCCNCc1ccc(OCCC(C)C)c(OC)c1,active: 56.2 µM,
COc1ccc(OC)c(NC(=O)c2ccc(-c3csc(C)n3)cc2)c1,"inconclusive: 89.1 µM [inhibitor, single point]",
COc1ccc(OCCn2cc(/C=N/NC(=O)c3ccncc3)c3ccccc32)cc1,"inconclusive: 28.2 µM [inhibitor, full curve]",
COc1cc(O)c(C(=O)/C=C/c2ccccc2)c(OC)c1,"inconclusive: 14.1 µM [inhibitor, partial curve]",
O=C(CNC(=O)N1CC(=O)Nc2ccccc21)NCc1ccc(Cl)cc1,active: 79.4 µM,
COc1ccc(NC2CCCN(C(=O)c3cn(C)c4ccccc34)C2)cc1 (stereo not drawn),"inconclusive: 50.1 µM [inhibitor, partial curve]",
COc1ccc(CNC(=O)[C@H](Cc2ccccc2)NC(=O)C2CCNCC2)cc1,,inactive: -4.13%
COc1cc(-c2noc(C)c2C#CC2(N)CCCCC2)cc(OC)c1OC,"inconclusive: 79.4 µM [inhibitor, single point]",
CCOc1ccc(-c2c(C)nn3c(C)c(C(=O)NCC(C)c4ccccc4)cnc23)cc1OCC (stereo not drawn),"inconclusive: 35.5 µM [inhibitor, full curve]",
COc1ccc(OC)c(CCNC(=O)CS(=O)(=O)Cc2nc(-c3ccccc3Cl)oc2C)c1,"inconclusive: 28.2 µM [inhibitor, single point]",
COc1ccc(C2=C(C#N)C(=O)OC2)cc1,"inconclusive: 89.1 µM [inhibitor, single point]",
O=C(Nc1ccccc1N1CCOCC1)C1CCN(S(=O)(=O)c2ccccc2F)CC1,,inactive: 6.52%
O=C(NNc1nc(-c2ccccc2)cs1)c1cccs1,"inconclusive: 79.4 µM [inhibitor, partial curve]",
CC(C)CCn1c(=O)c2sccc2n2c(CCCC(=O)N3CCC(N4CCCCC4)CC3)nnc12,,inactive: -2.31%
CCOc1cc(CN2CCN(C(=O)c3ccco3)CC2)ccc1OC,active: 50.1 µM,
Cc1ccc(C)c(N2N=C(C(=O)O)CCC2=O)c1,,inactive: -19.5%
Cc1cc(=O)[nH]c(N=N/C(=N/Nc2ccc(O)cc2)c2ccccc2)n1,active: 10 µM,
O=C(Nc1ccccc1N1CCCC1)c1cc(S(=O)(=O)N2CCOCC2)ccc1Cl,,inactive: -37.5%
Cc1cc(=O)oc2cc(OCC(=O)NC(Cc3c[nH]c4ccc(O)cc34)C(=O)O)c(Cl)cc12 (stereo not drawn),"inconclusive: 89.1 µM [inhibitor, single point]",
O=C(O)[C@@H]1Cc2ccccc2N1,"inconclusive: 79.4 µM [inhibitor, single point]",
CSc1nc(-c2ccccc2)[nH]c(=S)c1C(C)=O,"inconclusive: 89.1 µM [inhibitor, single point]",
